Test results taken from PMC3398040.
These are yes or no findings as the source states them, for the method shown. In cells and extracts the contact can be indirect. Some entries that bind do so weakly or less than the wild type. Tags and fused reporters may be left off the sequences shown.

How the values were obtained:
[1] = target: T1, HIS-tagged core of Ddi1 without the UbL and UbA domains (^HISΔΔDdi1) (yeast) (UniProt P40087); experiment: pull-down; HIS-Ddi1 or HIS-ΔΔDdi1 on Ni beads incubated with a constant amount of GFP-Ufo1 yeast extract and x3 the amount of GST-Rpn1 lysate (Figure 5B); only the target purified
T1 sequence: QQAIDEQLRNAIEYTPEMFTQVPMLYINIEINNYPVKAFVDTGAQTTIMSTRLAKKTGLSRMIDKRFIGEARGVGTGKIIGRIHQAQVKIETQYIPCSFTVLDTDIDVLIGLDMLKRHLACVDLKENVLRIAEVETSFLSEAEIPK

[2] = target: T2, HIS-tagged Ddi1 (^HISDdi1) (yeast) (UniProt P40087); experiment: as above
T2 sequence: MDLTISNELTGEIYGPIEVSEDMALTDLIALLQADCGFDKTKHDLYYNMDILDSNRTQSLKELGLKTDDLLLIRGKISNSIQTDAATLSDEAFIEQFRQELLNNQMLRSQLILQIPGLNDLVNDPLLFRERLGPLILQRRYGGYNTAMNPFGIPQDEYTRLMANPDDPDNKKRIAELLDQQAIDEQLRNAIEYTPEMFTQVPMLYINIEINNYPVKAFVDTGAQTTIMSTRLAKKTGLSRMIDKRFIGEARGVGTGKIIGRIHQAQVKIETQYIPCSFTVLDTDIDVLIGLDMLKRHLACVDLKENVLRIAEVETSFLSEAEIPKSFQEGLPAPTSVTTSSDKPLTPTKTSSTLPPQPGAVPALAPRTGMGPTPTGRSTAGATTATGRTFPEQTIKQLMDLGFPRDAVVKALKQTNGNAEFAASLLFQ

[3] = target: T2, HIS-tagged Ddi1 (^HISDdi1) (yeast); experiment: pull-down; HIS-Ddi1 on Ni beads incubated with one lysate or extract alone (GST-Rpn1 or GST-Ufo1 bacterial lysate, GFP-Ho or GFP-Ufo1 yeast extract); washed with 2.5% Triton X100 and 100 mM imidazole (Figure 5A lanes 4-6, Figure 5B lanes 3 and 4); only the target purified
[4] = target: T3, GST-tagged full-length Ufo1 (^GSTFL-Ufo1) (yeast) (UniProt Q04511); experiment: pull-down; recombinant GST fusion on GSH beads incubated with yeast extract, 4°C, 1-2 h, extract buffer (50 mM Tris-Cl pH 7.5, 150 mM NaCl, 5 mM EDTA, 0.1% NP40); washed with 2.5% Triton X100; Western blot (Figures 1A, 1B, 3A, 5E and 5F, extract alone); only the target purified
T3 sequence: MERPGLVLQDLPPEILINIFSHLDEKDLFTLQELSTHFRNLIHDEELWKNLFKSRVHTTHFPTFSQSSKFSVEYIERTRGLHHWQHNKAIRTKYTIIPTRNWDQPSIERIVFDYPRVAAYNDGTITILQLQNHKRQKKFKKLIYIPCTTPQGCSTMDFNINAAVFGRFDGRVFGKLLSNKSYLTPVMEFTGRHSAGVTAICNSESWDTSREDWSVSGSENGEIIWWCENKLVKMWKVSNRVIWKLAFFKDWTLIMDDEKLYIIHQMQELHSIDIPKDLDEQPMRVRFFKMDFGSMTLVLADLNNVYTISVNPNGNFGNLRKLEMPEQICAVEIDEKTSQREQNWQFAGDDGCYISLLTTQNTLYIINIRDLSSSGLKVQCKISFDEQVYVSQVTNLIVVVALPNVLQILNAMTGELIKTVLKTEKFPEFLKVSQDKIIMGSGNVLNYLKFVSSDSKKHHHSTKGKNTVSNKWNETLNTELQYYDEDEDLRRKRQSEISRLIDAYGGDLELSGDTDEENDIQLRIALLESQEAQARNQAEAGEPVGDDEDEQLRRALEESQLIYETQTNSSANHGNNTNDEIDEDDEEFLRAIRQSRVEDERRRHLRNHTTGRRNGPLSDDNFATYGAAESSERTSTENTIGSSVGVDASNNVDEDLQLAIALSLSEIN

[5] = target: T4, GST-tagged full-length Ddi1 (^GSTFL-Ddi1) (yeast) (UniProt P40087); experiment: as above
T4 sequence: T2 sequence

[6] = target: T2, HIS-tagged Ddi1 (^HISDdi1) (yeast); experiment: condition: only with GST-Rpn1 lysate at x1 or x2 as competitor; pull-down; HIS-Ddi1 on Ni beads incubated with Ufo1 (GST-Ufo1 lysate or GFP-Ufo1 extract) together with GST-Rpn1 lysate at x1 or x2, no Ho (Figure 5A lane 7, Figure 5B lanes 5 and 6, Figure 5C); only the target purified

binding [1]: binds weakly
binding [2]: binds
binding [3]: binds
binding [4]: binds
binding [5]: binds
binding [6]: no binding
B1: GFP-tagged full-length Ufo1 (^GFPFL-Ufo1) (protein, UniProt Q04511 1-668)
chain: T3 sequence
modifications: ubiquitylated as produced in yeast (sites not given)
